Experimental data published in patent US7045532B2 (Millennium Pharmaceuticals, Inc., priority 1999, dated 2006).

Molecular target: soluble truncated form of human ACE2 (Homo sapiens, UniProt Q9BYF1)
Conditions: 50 nM ACE-2, 50 μM peptide, room temperature, 2 hours, MALDI-TOF

soluble truncated form of human ACE2, sequence (Q9BYF1 18-739): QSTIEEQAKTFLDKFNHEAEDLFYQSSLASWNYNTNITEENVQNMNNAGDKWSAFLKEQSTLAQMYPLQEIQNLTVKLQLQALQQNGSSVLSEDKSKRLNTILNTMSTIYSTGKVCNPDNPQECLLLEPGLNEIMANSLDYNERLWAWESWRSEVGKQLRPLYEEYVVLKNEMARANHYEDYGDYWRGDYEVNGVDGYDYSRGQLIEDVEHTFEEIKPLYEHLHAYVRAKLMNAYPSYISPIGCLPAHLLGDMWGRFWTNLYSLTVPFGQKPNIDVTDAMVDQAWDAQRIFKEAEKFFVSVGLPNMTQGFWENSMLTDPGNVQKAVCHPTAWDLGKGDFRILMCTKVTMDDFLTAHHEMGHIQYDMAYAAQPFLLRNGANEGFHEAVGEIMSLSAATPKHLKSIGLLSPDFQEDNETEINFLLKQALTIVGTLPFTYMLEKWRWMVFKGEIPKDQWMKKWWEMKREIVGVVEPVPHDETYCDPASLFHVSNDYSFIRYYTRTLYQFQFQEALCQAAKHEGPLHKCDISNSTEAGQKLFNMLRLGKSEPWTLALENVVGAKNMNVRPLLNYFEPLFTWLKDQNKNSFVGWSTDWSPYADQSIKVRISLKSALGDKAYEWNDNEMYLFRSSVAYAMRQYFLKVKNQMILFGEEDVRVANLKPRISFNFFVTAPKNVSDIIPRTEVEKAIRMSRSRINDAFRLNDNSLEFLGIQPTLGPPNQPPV

angiotensin II (1-8) (DRVYIHPF; listed as Homo sapiens)
hydrolysis by ACE-2 (in words): hydrolyze

dynorphin A 1-13 (YGGFLRRIRPKLK; listed as Homo sapiens)
hydrolysis by ACE-2 (in words): complete hydrolysis
